Experimental findings from PubChem BioAssay AID463173 (ICCB-Longwood Screening Facility, Harvard Medical School, 2010) are described below.

About 1,700 (3.3%) of roughly 52,000 compounds were called active. Rule as the data show it: active = survival mostly below about 52% (no sharp cut-off); inactive = mostly above about 56%. The list shows a part of the results.

In this assay the test system is Wild type. The assay is described as follows: growth inhibition of S. aureus wild type versus tarO mutant, primary screen, teichoic acid synthesis inhibitors, RN4220, OD600 (AID 463173). Conditions: S. aureus RN4220 wild type/DeltatarO growth, OD600, 18 h, hits give low values, screened at 18.75 µg/mL (by protocol).
As for `CCC1CN(C(=O)N2CCC(C(=O)N3CCN(c4ccccc4)CC3)CC2)c2ccccc2O1` (centres undefined), the survival is inactive: 83%.
Take `Cc1ccc(-n2c(=O)c3ccc(C(=O)NCc4ccco4)cc3n(CC(=O)Nc3ccc(C)c(F)c3)c2=O)cc1`: the survival is inactive: 71%.
For `COc1ccc(CNC(=O)c2ccc3c(c2)nc2n3CCCCC2)cc1`, the survival is inactive: 82%.
For the compound `Cc1ccc(NS(=O)(=O)c2ccc3c(c2)N(C)C(=O)CC(=O)N3C)cc1Cl`, the survival is inactive: 71%.
For the compound `N#CCCCN1C(=O)C(=C(C#N)C#N)c2ccccc21`, the survival was inactive: 109%.
`O=S(=O)(NCC(c1cccs1)S(=O)(=O)c1ccccc1)c1ccccc1` (centres undefined): the survival is inactive: 82%.
As to `CCOc1ccc(-n2c(SCC(=O)NCc3ccccc3)nc3n[nH]c(C)c3c2=N)cc1`, the survival was inactive: 134%.
As for `CCOC(=O)N1CCc2c(sc(NCc3ccc(N(CC)CC)cc3)c2C(=O)Nc2cc(OC)ccc2OC)C1`, the survival is inactive: 68%.
Turning to `Cc1cc(C)n(C(C)CC(=O)Nc2ccc(Cl)cc2C)n1` (centres undefined), the survival is inactive: 83%.
As for `CC1Cc2cc(S(=O)(=O)CCC(=O)Nc3ccccc3F)ccc2N1C(=O)C1CC1` (centres undefined), the survival was inactive: 73%.
Regarding `COc1cccc(CN2C(=O)C3(SCC(=O)N3c3ccc(C)c(Cl)c3)c3ccccc32)c1` (centres undefined), the survival is inactive: 64%.
With `CNC(=S)N1CCN(c2ccccc2F)CC1`, the survival was inactive: 111%.
With `CCOc1ccc(Sc2cc(C(=O)NCc3ccc(C)cc3)c3ccccc3n2)cc1` the figure was inactive: 95%; with `COCCCn1c(=N)c(C(=O)NC2CCCC2)cc2c(=O)n3cccc(C)c3nc21`, inactive: 121%.
Regarding `CCOc1ccccc1NS(=O)(=O)c1cc2[nH]c(=O)c(=O)[nH]c2cc1C`, the survival was inactive: 78%.
`COc1ccc(Cn2ccc3nc(C)c(C(=O)Nc4cc(OC)c(OC)c(OC)c4)cc3c2=O)cc1`: the survival is inactive: 124%.
With `Cc1cccc(C(=O)n2nc(C)c(S(=O)(=O)N3CCOCC3)c2C)c1` the figure was inactive: 89%; with `CCCCC(=O)N1CCc2cc(OC)c(OC)cc2C1COc1ccc(C(=O)OCC)cc1` (centres undefined), inactive: 65%; with `COC(=O)c1scc(-c2ccc(C)cc2)c1S(=O)(=O)N1CCN(c2ccc(F)cc2)CC1`, active: -6%.
Consider `Nc1c(C(=O)NCc2cccs2)nnn1CC(=O)Nc1cccc(F)c1`, for which the survival was inactive: 101%.
For `Cc1cc(C)cc(-n2ccn(CC(=O)c3ccc(F)cc3)c(=O)c2=O)c1` the value was inactive: 114%; for `O=C(NC1CCCCC1)c1ccc(CSc2nc3cccnc3n2Cc2cccc(F)c2)cc1`, inactive: 88%.
In the case of `CCC1CCCCN1C(=O)c1c[nH]c2ccc(S(=O)(=O)Nc3cccc(OC)c3)cc2c1=O` (centres undefined), the survival was inactive: 65%.
For the compound `O=C(NCc1ccco1)c1ccc2c(c1)N(Cc1ccccc1)C(=O)c1ccccc1S2`, the survival was inactive: 82%.
`Cc1cc(C)c(S(=O)(=O)NCCc2sc3nc(-c4ccc(F)cc4)nn3c2C)c(C)c1`: the survival was inactive: 63%.
Turning to `COC(=O)c1ccc(CSc2c(C(C)C)cnc3c2c(=O)n(C)c(=O)n3C)cc1`, the survival is inactive: 73%.
`CCOc1ccc(NC(=O)CCc2c(C)nc3cc(-c4ccccc4OC)nn3c2C)cc1`: the survival was inactive: 76%.
Consider `O=C(c1ccc(CS(=O)(=O)c2ccc(Br)cc2)o1)N1CCN(c2ccc(F)cc2)CC1`, for which the survival is inactive: 126%.
As to `Cc1ccc(NC(=O)c2sc3ncnc(N(C)C4CCCCC4)c3c2C)c(C)c1`, the survival is inactive: 74%.
With `O=C(O)c1ccc(NS(=O)(=O)c2ccc(Cl)c(C(=O)Nc3ccccc3)c2)cc1`, the survival was inactive: 74%.
`Cc1c(NC(=O)Nc2ccc(Cl)c(Cl)c2)sc2nc3n(c(=O)c12)CCC(C)CC3` (centres undefined): the survival is inactive: 88%.
Regarding `Cc1ccc(N(C)S(=O)(=O)c2ccc3[nH]c(=O)ccc3c2)cc1`, the survival is inactive: 77%.
Consider `O=C(Nc1nc2n(n1)C(c1ccc(F)cc1)C=C(c1ccc(Cl)cc1)N2)c1ccc([N+](=O)[O-])cc1` (centres undefined), for which the survival was inactive: 48%.
As to `N#C/C(=C\c1ccc(OCc2ccc(Cl)cc2Cl)cc1)c1nc2ccccc2[nH]1`, the survival is inactive: 142%.
For the compound `Cc1oc2c(cc(NS(=O)(=O)c3ccc(C(C)C)cc3)c3ccccc32)c1C(=O)OCc1ccccc1`, the survival is inactive: 105%.
On to `Cc1cccc(C2=Nc3ccccc3N=C(c3cc(Cl)ccc3O)C2)c1`, for which the survival was inactive: 34%.
Consider `COc1ccc(OC)c(CNC(=O)c2cc3c(Cl)nc4ccccc4c3s2)c1`, for which the survival was inactive: 75%.
With `Cc1cccc(NC(=O)/C(C#N)=C/c2ccco2)c1`, the survival is inactive: 73%.
With `CCCNC(=O)Cn1nc(-c2ccc(OC)cc2)c2cnc3ccc(F)cc3c21`, the survival is inactive: 73%.
For the compound `CC(=O)Nc1c(C(=O)O)oc2ccc(Cl)cc12`, the survival is inactive: 103%.
With `O=C(Nc1cccc(Br)c1)N1CCN2CCCCC2C1` (centres undefined) the figure was inactive: 88%; with `COc1ccccc1CC(=O)Nc1ccc2nc(Nc3cccc(C(F)(F)F)c3)cc(C)c2c1`, inactive: 81%.
As to `CCOc1ccc(-n2c(C)nc3cc(C(=O)NC4CCCC4)ccc32)cc1`, the survival was inactive: 67%.
For the compound `COc1ccc(CNC(=O)Cn2c(=O)n3nc(-c4ccc(OC)cc4)nc3c3ccccc32)cc1`, the survival was inactive: 76%.
Take `O=C(COc1ccc(S(=O)(=O)NCc2ccccc2)cc1Cl)N1CCOCC1`: the survival is inactive: 112%.
Turning to `CC(=O)c1cccc(NS(=O)(=O)c2ccc3[nH]c4c(c3c2)CCCCC4)c1`, the survival was inactive: 112%.
With `Cc1cn2c(=O)c(S(=O)(=O)Nc3ccc(OC(F)(F)F)cc3)c(C)nc2s1`, the survival was inactive: 114%.
As for `COc1ccc(NC(=O)C(c2ccccc2)N(C)C(=O)/C=C\c2ccc3c(c2)OCO3)cc1` (centres undefined), the survival was inactive: 80%.
With `COc1ccc(-c2noc(CSc3nnc(C)n3-c3ccc(F)cc3)n2)cc1` the figure was inactive: 84%; with `COc1ccc(C(CC(=O)Nc2cc(Cl)c(OC)cc2OC)N2Cc3ccccc3C2=O)cc1` (centres undefined), active: -3%; with `COc1ccc(-c2c(C)nn3c(C(F)(F)F)cc(-c4ccc(C)cc4)nc23)cc1`, inactive: 93%.
With `Cn1c(COc2ccccc2Br)nc2ccccc21` the figure was inactive: 106%; with `CCOc1ccc(C(=O)Nc2ccc3nc(Nc4cccc(C(F)(F)F)c4)cc(C)c3c2)cc1OCC`, inactive: 88%; with `CCSc1nnc(C2CCCN(CC(=O)NC3CCCCC3C)C2)n1CC` (centres undefined), inactive: 125%.
For `Cc1ccc2cc(C#N)c(SCC(=O)Nc3ccccc3N3CCOCC3)nc2c1C`, the survival is inactive: 102%.
On to `Cc1ccccc1OCC(=O)Nc1c(C(=O)Nc2ccccc2F)oc2ccccc12`, for which the survival was inactive: 127%.
For the compound `CC(=O)NNc1ncnc2c1cnn2-c1ccccc1`, the survival is inactive: 64%.
With `CCOc1ccc(NC(=O)N2CC3CCCN3c3ccccc32)cc1` (centres undefined) the figure was inactive: 81%; with `C=CCNC(=S)/N=c1\sccn1C`, inactive: 88%.
Take `COC(=O)c1cnc(N2CCN(c3ccc(OC)cc3)CC2)c2ccccc12`: the survival is inactive: 83%.
For `Cc1ccccc1NS(=O)(=O)c1ccc2[nH]cc(C(=O)NCCc3ccccc3)c(=O)c2c1` the value was inactive: 74%.
In the case of `CCOC(=O)c1ccc(NC(=O)CS(=O)(=O)Cc2nc(-c3ccc(C)cc3)oc2C)cc1`, the survival was inactive: 87%.
For `CCCCc1ccc(NC(=O)CSc2nc3ccccc3nc2N2CCCCC2)cc1`, the survival was inactive: 41%.
For `CCCNC(=O)CCc1c(C)nc2nc(CNC(=O)c3ccccc3)nn2c1C` the value was inactive: 84%.
`COC(=O)c1c(-c2ccc(Cl)cc2)noc1N1CCN(c2ccc(C(C)=O)cc2)CC1`: the survival is inactive: 68%.
With `Cc1ccc(F)cc1NC(=O)CSc1nc(-c2cccs2)cc(C(F)(F)F)n1` the figure was inactive: 92%.
Consider `CCOc1ccc(NC(=O)C(CC)n2nc(C)c3c(C)n(-c4ccccc4)nc3c2=O)cc1` (centres undefined), for which the survival is inactive: 79%.
For `COc1ccc(NC(=O)c2oc3ccccc3c2NC(=O)c2cc3ccccc3o2)c(OC)c1`, the survival is inactive: 86%.
In the case of `COc1ccc(-c2csc(NC(=O)C(C)C)n2)cc1`, the survival is inactive: 104%.
`CCOc1ccc(NC(=O)CSc2nnnn2C2CCCC2)cc1`: the survival is inactive: 103%.
With `Cc1ccc(NC(=O)CN2C(=O)CC(c3ccco3)Sc3ccccc32)cc1Cl` (centres undefined) the figure was inactive: 83%; with `O=C1OC2(CCCC2)OC(=O)C1=CNc1ccccc1`, inactive: 93%; with `COc1cc(OC)cc(-n2c(=O)c3sccc3n(Cc3ccc(F)cc3)c2=O)c1`, inactive: 149%.
`C=CCNC(=O)c1cc2n(n1)C(C(F)(F)F)CC(c1ccco1)N2` (centres undefined): the survival is inactive: 95%.
With `COc1cc(OC)c(NC(=O)Nc2ccc3c(c2)N(C)C(=O)c2ccccc2S3)cc1Cl`, the survival is inactive: 120%.
In the case of `Cc1ccc(-c2onc(C)c2C)cc1S(=O)(=O)N1CCN(c2ccccc2F)CC1`, the survival was inactive: 87%.
As for `CCOc1ccccc1CNC(=O)c1ccc(-n2c(C)cc3c2CCC(C)C3)cc1` (centres undefined), the survival was inactive: 97%.
With `COC(=O)c1ccccc1NC(=O)CCCn1nc(C)c2c(C)n(-c3ccccc3)nc2c1=O`, the survival was inactive: 74%.
On to `COc1cccc(NC(=O)CCNC(=O)Cn2cnc3ccccc3c2=O)c1`, for which the survival is inactive: 67%.
Turning to `CCn1c2ccccc2c2cc(CN3CCN(Cc4cccc(Cl)c4)CC3)ccc21`, the survival is active: 0%.
Take `COc1cc(C(CC(=O)NCc2ccccc2Cl)N2Cc3ccccc3C2=O)cc(OC)c1OC` (centres undefined): the survival is inactive: 89%.
For `COc1ccc(CCNC(=O)CN2C(=O)COc3ccc(S(=O)(=O)N4CCCC4)cc32)cc1OC`, the survival is inactive: 81%.
As to `Cc1ccc(Cl)cc1N1CCN(c2nc3ccccc3c3nc(-c4cccnc4)nn23)CC1`, the survival was inactive: 123%.
As for `Cc1ccc(CNC(=O)c2cc(-c3ccc(C)c(C)c3)nc3ccccc23)cc1`, the survival is inactive: 81%.
For `Cc1ccc(C(=O)O)cc1NC(=O)c1nsc2ccccc12`, the survival is inactive: 74%.
For `COc1ccc(-c2csc(C)n2)cc1`, the survival is inactive: 104%.
With `Cc1ccc(NC(=O)C(=O)NCC(c2cccnc2)N2CCN(Cc3ccccc3)CC2)cc1Cl` (centres undefined) the figure was inactive: 79%.
On to `C/C=N/NC(=O)CSc1nc2ccccc2s1`, for which the survival is inactive: 107%.
Consider `CCCOc1ccc(Oc2nc(NC)nc(N3CCOCC3)n2)nn1`, for which the survival is inactive: 106%.
